Results reported in PMC12820563.
The list shows a part of the results. The list includes weakly bound sequences.

Each sequence was assayed against T1, MBP-FoxP3dN (UniProt Q99JB6) (assay: PD-seq (MBP pull-down with sequencing)). Conditions: 20 mM Tris-HCl pH 7.5, 100 mM NaCl, 1.5 mM MgCl2, 0.4 uM protein, 0.1 uM dsDNA library, 30 min, room temperature, amylose pull-down; high values mean tight binding; double strand, one strand shown.
T1 sequence: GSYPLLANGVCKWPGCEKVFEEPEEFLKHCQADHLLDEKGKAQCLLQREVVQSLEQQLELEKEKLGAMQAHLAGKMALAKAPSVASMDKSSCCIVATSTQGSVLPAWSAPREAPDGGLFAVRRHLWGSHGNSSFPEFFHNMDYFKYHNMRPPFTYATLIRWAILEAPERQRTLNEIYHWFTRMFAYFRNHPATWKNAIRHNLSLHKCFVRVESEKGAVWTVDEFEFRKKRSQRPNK

“GATGATTGTTCTCCCAGCTGATGAATTGTTAGCCTCGAGTAAACAAATTTTCCTAATCTTTCTGTTCAAGCGCCATCTAC” was tested. Which binding signal (RPM ratio (pull-down/input)) did it give?
Its binding signal (RPM ratio (pull-down/input)) is 1.48.

With “GATGATTGTTCTCCCAGCTGATGAATTTAGTCTCTCGAGTAAACAAATTTTCCTAATCTTTCTGTTCAAGCGCCATCTAC” as the sequence, how does the binding signal (RPM ratio (pull-down/input)) read?
Its binding signal (RPM ratio (pull-down/input)) is 0.886.

For “GATGATTGTTCTCCCAGCTGATGAATTTCAGCCATCGAGTAAACAAATTTTCCTAATCTTTCTGTTCAAGCGCCATCTAC”, which binding signal (RPM ratio (pull-down/input)) is on record?
The binding signal (RPM ratio (pull-down/input)) was 1.24.

How did the binding signal (RPM ratio (pull-down/input)) turn out when “GATGATTGTTCTCCCAGCTGATGAATTGATCTTTTCGAGTAAACAAATTTTCCTAATCTTTCTGTTCAAGCGCCATCTAC” was run?
The binding signal (RPM ratio (pull-down/input)) was 0.253.

With “GATGATTGTTCTCCCAGCTGATGAATTAGCCGCGTCGAGTAAACAAATTTTCCTAATCTTTCTGTTCAAGCGCCATCTAC” as the sequence, how does the binding signal (RPM ratio (pull-down/input)) read?
Its binding signal (RPM ratio (pull-down/input)) is 0.498.

“GATGATTGTTCTCCCAGCTGATGAATTCATGGGGTCGAGTAAACAAATTTTCCTAATCTTTCTGTTCAAGCGCCATCTAC” was tested. Which binding signal (RPM ratio (pull-down/input)) did it give?
Its binding signal (RPM ratio (pull-down/input)) is 0.44.

For “GATGATTGTTCTCCCAGCTGATGAATTGCGATTATCGAGTAAACAAATTTTCCTAATCTTTCTGTTCAAGCGCCATCTAC”, which binding signal (RPM ratio (pull-down/input)) is on record?
The binding signal (RPM ratio (pull-down/input)) was 1.94.

Which binding signal (RPM ratio (pull-down/input)) does the source give for “GATGATTGTTCTCCCAGCTGATGAATTGTGCACGTCGAGTAAACAAATTTTCCTAATCTTTCTGTTCAAGCGCCATCTAC” here?
The binding signal (RPM ratio (pull-down/input)) was 3.73.

How did the binding signal (RPM ratio (pull-down/input)) turn out when “GATGATTGTTCTCCCAGCTGATGAATTAAACATGTCGAGTAAACAAATTTTCCTAATCTTTCTGTTCAAGCGCCATCTAC” was run?
The binding signal (RPM ratio (pull-down/input)) was 0.651.

“GATGATTGTTCTCCCAGCTGATGAATTGTGTCCGTCGAGTAAACAAATTTTCCTAATCTTTCTGTTCAAGCGCCATCTAC” was tested. Which binding signal (RPM ratio (pull-down/input)) did it give?
Its binding signal (RPM ratio (pull-down/input)) is 0.938.

“GATGATTGTTCTCCCAGCTGATGAATTAATCAATTCGAGTAAACAAATTTTCCTAATCTTTCTGTTCAAGCGCCATCTAC” was tested. Which binding signal (RPM ratio (pull-down/input)) did it give?
The binding signal (RPM ratio (pull-down/input)) was 0.407.

How did the binding signal (RPM ratio (pull-down/input)) turn out when “GATGATTGTTCTCCCAGCTGATGAATTGATATGGTCGAGTAAACAAATTTTCCTAATCTTTCTGTTCAAGCGCCATCTAC” was run?
Its binding signal (RPM ratio (pull-down/input)) is 0.678.

How did the binding signal (RPM ratio (pull-down/input)) turn out when “GATGATTGTTCTCCCAGCTGATGAATTTGTCGCTTCGAGTAAACAAATTTTCCTAATCTTTCTGTTCAAGCGCCATCTAC” was run?
Its binding signal (RPM ratio (pull-down/input)) is 3.62.

Which binding signal (RPM ratio (pull-down/input)) does the source give for “GATGATTGTTCTCCCAGCTGATGAATTTTTGAGTTCGAGTAAACAAATTTTCCTAATCTTTCTGTTCAAGCGCCATCTAC” here?
Its binding signal (RPM ratio (pull-down/input)) is 0.454.

How did the binding signal (RPM ratio (pull-down/input)) turn out when “GATGATTGTTCTCCCAGCTGATGAATTACCTTTTTCGAGTAAACAAATTTTCCTAATCTTTCTGTTCAAGCGCCATCTAC” was run?
Its binding signal (RPM ratio (pull-down/input)) is 0.319.

“GATGATTGTTCTCCCAGCTGATGAATTACAACGGTCGAGTAAACAAATTTTCCTAATCTTTCTGTTCAAGCGCCATCTAC” was tested. Which binding signal (RPM ratio (pull-down/input)) did it give?
The binding signal (RPM ratio (pull-down/input)) was 0.489.

For “GATGATTGTTCTCCCAGCTGATGAATTAATCACCTCGAGTAAACAAATTTTCCTAATCTTTCTGTTCAAGCGCCATCTAC”, which binding signal (RPM ratio (pull-down/input)) is on record?
The binding signal (RPM ratio (pull-down/input)) was 0.759.

With “GATGATTGTTCTCCCAGCTGATGAATTGGGTCTGTCGAGTAAACAAATTTTCCTAATCTTTCTGTTCAAGCGCCATCTAC” as the sequence, how does the binding signal (RPM ratio (pull-down/input)) read?
The binding signal (RPM ratio (pull-down/input)) was 0.361.

Which binding signal (RPM ratio (pull-down/input)) does the source give for “GATGATTGTTCTCCCAGCTGATGAATTCTGTCTTTCGAGTAAACAAATTTTCCTAATCTTTCTGTTCAAGCGCCATCTAC” here?
The binding signal (RPM ratio (pull-down/input)) was 1.28.

With “GATGATTGTTCTCCCAGCTGATGAATTGTGTTACTCGAGTAAACAAATTTTCCTAATCTTTCTGTTCAAGCGCCATCTAC” as the sequence, how does the binding signal (RPM ratio (pull-down/input)) read?
The binding signal (RPM ratio (pull-down/input)) was 3.41.

With “GATGATTGTTCTCCCAGCTGATGAATTATAAAGGTCGAGTAAACAAATTTTCCTAATCTTTCTGTTCAAGCGCCATCTAC” as the sequence, how does the binding signal (RPM ratio (pull-down/input)) read?
The binding signal (RPM ratio (pull-down/input)) was 0.205.

Which binding signal (RPM ratio (pull-down/input)) does the source give for “GATGATTGTTCTCCCAGCTGATGAATTTCGGTGCTCGAGTAAACAAATTTTCCTAATCTTTCTGTTCAAGCGCCATCTAC” here?
The binding signal (RPM ratio (pull-down/input)) was 0.541.

With “GATGATTGTTCTCCCAGCTGATGAATTCATGTTGTCGAGTAAACAAATTTTCCTAATCTTTCTGTTCAAGCGCCATCTAC” as the sequence, how does the binding signal (RPM ratio (pull-down/input)) read?
Its binding signal (RPM ratio (pull-down/input)) is 1.83.

How did the binding signal (RPM ratio (pull-down/input)) turn out when “GATGATTGTTCTCCCAGCTGATGAATTATCTATATCGAGTAAACAAATTTTCCTAATCTTTCTGTTCAAGCGCCATCTAC” was run?
The binding signal (RPM ratio (pull-down/input)) was 0.454.

Which binding signal (RPM ratio (pull-down/input)) does the source give for “GATGATTGTTCTCCCAGCTGATGAATTTTTTCGTTCGAGTAAACAAATTTTCCTAATCTTTCTGTTCAAGCGCCATCTAC” here?
The binding signal (RPM ratio (pull-down/input)) was 0.221.

“GATGATTGTTCTCCCAGCTGATGAATTAGCCGAATCGAGTAAACAAATTTTCCTAATCTTTCTGTTCAAGCGCCATCTAC” was tested. Which binding signal (RPM ratio (pull-down/input)) did it give?
The binding signal (RPM ratio (pull-down/input)) was 0.215.

With “GATGATTGTTCTCCCAGCTGATGAATTAGCCCCATCGAGTAAACAAATTTTCCTAATCTTTCTGTTCAAGCGCCATCTAC” as the sequence, how does the binding signal (RPM ratio (pull-down/input)) read?
The binding signal (RPM ratio (pull-down/input)) was 0.324.

With “GATGATTGTTCTCCCAGCTGATGAATTTGATACATCGAGTAAACAAATTTTCCTAATCTTTCTGTTCAAGCGCCATCTAC” as the sequence, how does the binding signal (RPM ratio (pull-down/input)) read?
The binding signal (RPM ratio (pull-down/input)) was 0.938.

How did the binding signal (RPM ratio (pull-down/input)) turn out when “GATGATTGTTCTCCCAGCTGATGAATTTCGTAACTCGAGTAAACAAATTTTCCTAATCTTTCTGTTCAAGCGCCATCTAC” was run?
Its binding signal (RPM ratio (pull-down/input)) is 1.69.

How did the binding signal (RPM ratio (pull-down/input)) turn out when “GATGATTGTTCTCCCAGCTGATGAATTATTCGTATCGAGTAAACAAATTTTCCTAATCTTTCTGTTCAAGCGCCATCTAC” was run?
The binding signal (RPM ratio (pull-down/input)) was 0.546.

How did the binding signal (RPM ratio (pull-down/input)) turn out when “GATGATTGTTCTCCCAGCTGATGAATTCTAAAGCTCGAGTAAACAAATTTTCCTAATCTTTCTGTTCAAGCGCCATCTAC” was run?
The binding signal (RPM ratio (pull-down/input)) was 0.248.

With “GATGATTGTTCTCCCAGCTGATGAATTAACCAATTCGAGTAAACAAATTTTCCTAATCTTTCTGTTCAAGCGCCATCTAC” as the sequence, how does the binding signal (RPM ratio (pull-down/input)) read?
The binding signal (RPM ratio (pull-down/input)) was 0.289.

Which binding signal (RPM ratio (pull-down/input)) does the source give for “GATGATTGTTCTCCCAGCTGATGAATTGGATGGGTCGAGTAAACAAATTTTCCTAATCTTTCTGTTCAAGCGCCATCTAC” here?
The binding signal (RPM ratio (pull-down/input)) was 0.572.

“GATGATTGTTCTCCCAGCTGATGAATTCTGTACTTCGAGTAAACAAATTTTCCTAATCTTTCTGTTCAAGCGCCATCTAC” was tested. Which binding signal (RPM ratio (pull-down/input)) did it give?
The binding signal (RPM ratio (pull-down/input)) was 0.834.

How did the binding signal (RPM ratio (pull-down/input)) turn out when “GATGATTGTTCTCCCAGCTGATGAATTTTACCGATCGAGTAAACAAATTTTCCTAATCTTTCTGTTCAAGCGCCATCTAC” was run?
Its binding signal (RPM ratio (pull-down/input)) is 0.227.

“GATGATTGTTCTCCCAGCTGATGAATTGAGAGGGTCGAGTAAACAAATTTTCCTAATCTTTCTGTTCAAGCGCCATCTAC” was tested. Which binding signal (RPM ratio (pull-down/input)) did it give?
Its binding signal (RPM ratio (pull-down/input)) is 0.277.

With “GATGATTGTTCTCCCAGCTGATGAATTATCTTCCTCGAGTAAACAAATTTTCCTAATCTTTCTGTTCAAGCGCCATCTAC” as the sequence, how does the binding signal (RPM ratio (pull-down/input)) read?
The binding signal (RPM ratio (pull-down/input)) was 0.293.

Which binding signal (RPM ratio (pull-down/input)) does the source give for “GATGATTGTTCTCCCAGCTGATGAATTTTGGAAGTCGAGTAAACAAATTTTCCTAATCTTTCTGTTCAAGCGCCATCTAC” here?
The binding signal (RPM ratio (pull-down/input)) was 0.195.

Which binding signal (RPM ratio (pull-down/input)) does the source give for “GATGATTGTTCTCCCAGCTGATGAATTTAGGGAGTCGAGTAAACAAATTTTCCTAATCTTTCTGTTCAAGCGCCATCTAC” here?
The binding signal (RPM ratio (pull-down/input)) was 0.374.

With “GATGATTGTTCTCCCAGCTGATGAATTCGGCTAATCGAGTAAACAAATTTTCCTAATCTTTCTGTTCAAGCGCCATCTAC” as the sequence, how does the binding signal (RPM ratio (pull-down/input)) read?
Its binding signal (RPM ratio (pull-down/input)) is 0.271.
